Data published in the supplement of paper PMC5895741.

B1: MS2 coat protein; the commonest letter at each place (parent)
chain: MASNFTQFVLVDNGGTGDVTVAPSNFANGVAEWISSNSRSQAYKVTCSVRQSSAQNRKYTIKVEVPKVATQTVGGVELPVAAWRSYLNMELTIPIFATNSDCELIVKAMQGLLKDGNPIPSAIAANSGIY

Variants of: B1
Assay: apparent fitness score (VLP assembly selection enrichment vs plasmid library) (log10 ratio); higher = better expression / assembly into well-formed VLPs
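Note: counts from Illumina MiSeq reads, cDNA of packaged RNA versus plasmid DNA taken before selection, each replicate independent from library construction onward, expression induced with 0.1% arabinose.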

Apparent fitness score (log10), by site and new letter:
R57: V 0.13 | W 0.612 | Y 0.325
K58: A -0.305 | C -0.26 | D < -4 | E < -4 | F -2.18 | G -1.38 | H -1.16 | I < -4 | L -0.219 | M 0.367 | N -0.319 | P -0.985 | Q -0.589 | R 0.0614 | S -0.43 | T -0.44 | V -1.16 | W < -4 | Y < -4
Y59: A < -4 | C -1 | D < -4 | E -1.13 | F -0.838 | G -1.18 | H -1.26 | I -0.617 | K < -4 | L -1.24 | M -1.29 | N -1.57 | P -1.31 | Q -1.07 | R -0.992 | S -1.36 | T -0.817 | V -0.826 | W -0.299
T60: A 0.391 | C 0.789 | E 0.476 | F 0.467 | G -1.14 | H 0.214 | I 1.09 | K 0.78 | L 0.632 | M 0.551 | P -1.01 | Q 0.492 | R 0.767 | S 0.366 | V 0.587 | W 0.77 | Y 0.512
I61: A -1.17 | C -0.604 | D < -4 | E -1.11 | F -0.916 | G -1.35 | H < -4 | K -1.81 | L -0.846 | N < -4 | P -0.859 | Q < -4 | R -1.66 | S -0.943 | T < -4 | V 0.457 | W < -4 | Y -0.837
K62: A -0.713 | C 0.0423 | D < -4 | E -0.586 | F -1.1 | G -0.747 | H 0.266 | I < -4 | L -0.918 | N -0.87 | P -1.66 | Q -0.37 | R 0.581 | S -0.767 | T -0.386 | V 0.0499 | W -0.915 | Y -0.386
V63: A 0.353 | C 0.185 | D -1.04 | E -1.46 | F 0.198 | G 0.0524 | H < -4 | I 0.599 | K 0.178 | L 0.637 | M 0.902 | N -0.907 | P -1.68 | Q 0.223 | R -1.04 | S 0.481 | T 0.112 | W < -4 | Y -1.96
E64: A 0.744 | C 0.033 | D 0.231 | F -1.3 | G 0.121 | H -1.27 | I -0.888 | K 0.273 | L -0.566 | M < -4 | N 0.166 | P -0.744 | Q 0.474 | R -1.31 | S 0.697 | T 0.627 | V -0.176 | W < -4 | Y -1.3
V65: A -0.862 | C 0.434 | D -1.17 | E -0.887 | F -0.301 | G -1.41 | H < -4 | I 0.227 | K < -4 | L -0.6 | M -0.0223 | N -0.805 | P -1.04 | Q -0.388 | R -0.634 | S -1.06 | T -1.7 | W < -4 | Y -0.429
P66: A -1.34 | C -0.558 | D -1.01 | E -0.927 | F < -4 | G -1.62 | H -1.46 | I -0.773 | K -1.64 | L -0.819 | M < -4 | N < -4 | Q -0.831 | R -1.41 | S -0.54 | T < -4 | V -1.2 | W < -4 | Y < -4
K67: A -1.46 | C < -4 | D < -4 | E < -4 | F -1.87 | G -1.57 | H < -4 | I -0.99 | L -1.12 | M -0.739 | N -0.442 | P < -4 | Q < -4 | R -1.36 | S < -4 | T -1.17 | V -1.15 | W -0.762 | Y -1.56
V68: A 0.52 | C 0.597 | D -0.087 | E 0.491 | F 0.262 | G 0.339 | H -0.0413 | I 0.299 | K 0.615 | L 0.593 | M 1.8e-05 | N 0.487 | P 0.581 | Q -0.014 | R 0.353 | S 0.398 | T 0.4 | W 0.476 | Y -0.191
A69: C -1.76 | D -0.558 | E -0.723 | F -1.86 | G 0.537 | H -0.706 | I < -4 | K -0.786 | L < -4 | M < -4 | N < -4 | P -1.01 | Q -1.13 | R -1.48 | S -0.968 | T -1.24 | V -1.54 | W < -4 | Y -1.59
T70: A -0.08 | C -0.576 | D 0.0742 | E -0.0121 | F -0.652 | G -0.138 | H -0.859 | I 0.575 | K 0.249 | L -0.626 | M < -4 | N 0.642 | P -0.828 | Q 0.77 | R -0.00338 | S 0.356 | V 0.379 | W 0.0576 | Y -0.786
Q71: A 0.34 | C -1.12 | D -0.62 | E -0.585 | F -0.0785 | G 0.0155 | H -0.786 | I -1.25 | K 0.381 | L -0.518 | M -0.0156 | N -0.272 | P -0.748 | R 0.394 | S 0.531 | T -0.962 | V -0.859 | W 0.0247 | Y 0.223
T72: A 0.511 | C 0.608 | D -0.368 | E -0.645 | F 0.427 | G -0.25 | H 0.397 | I 0.514 | K 0.667 | L 0.338 | M 0.281 | N 0.454 | P -0.689 | Q 0.359 | R 0.0912 | S 0.627 | V 0.835 | W 0.00727 | Y 0.578
V73: A 0.461 | C 0.623 | D 0.00441 | E -0.0769 | F 0.433 | G -0.0891 | H 0.222 | I 0.495 | K 0.644 | L 0.494 | M 0.636 | N 0.19 | P -0.132 | Q 0.504 | R 0.408 | S 0.467 | T 0.5 | W 0.602 | Y 0.343
G74: A 0.418 | C 0.261 | D 0.82 | E 0.658 | F 0.278 | H 0.281 | I -0.104 | K 0.23 | L 0.34 | M 0.263 | N 0.541 | P -0.701 | Q 0.274 | R 0.329 | S 0.687 | T 0.623 | V 0.931 | W 0.0363 | Y 0.211
G75: A -0.395 | C 0.167 | D -1.13 | E -0.571 | F -0.869 | H -0.739 | I -0.862 | K -0.608 | L -0.855 | M -0.756 | N -1.81 | P -0.439
